From patent publication US8021661B2, “Cripto binding molecules” (Biogen Idec MA Inc., priority 2005, dated 2011)
Where a chain is given by its changes, count along the chain named.

B1: HuCC49 V2 PAP: CH2 domain deleted humanized CC49 version 2 containing the connecting peptide shown in SEQ ID NO: 32 (protein)
heavy (part 1 of 2): QVQLVQSGAEVVKPGASVKISCKASGYTFTDHAIHWVKQNPGQRLEWIGYFSPGNDDFKYNERFKGKATITADTSASTAYVELSSLRSEDTAVYFCARSLNMAYWGQGTLVTVSS
heavy (part 2 of 2): EPKSCDKTHTCPPCPAPGGGSSGGGSG
light: DIVMSQSPDSLAVSLGERVTLNCKSSQSLLYSGNQKNYLAWYQQKPGQPPKLLIYWASARESGVPDRFSGSGSGTDFTLTISSVQAEDVAVYYCQQYYSYPLTFGAGTKLELKRTVAAPSVFIFPPSDEQLKSGTASVVCLLNNFYPREAKVQWKVDNALQSGNSQESVTEQDSKDSTYSLSSTLTLSKADYEKHKVYACEVTHQGLSSPVTKSFNRGEC
modifications: left off: a dimerising Fc or GST
B2: Domain deleted CC49 G1/G3/Pro243Ala244Pro245+[Gly/Ser]: domain deleted CC49 with hinge connecting peptide SEQ ID NO: 5 (antibody)
heavy: QVQLVQSGAEVVKPGASVKISCKASGYTFTDHAIHWVKQNPGQRLEWIGYFSPGNDDFKYNERFKGKATLTADTSASTAYVELSSLRSEDTAVYFCTRSLNMAYWGQGTLVTVSSASTKGPSVFPLAPSSKSTSGGTAALGCLVKDYFPEPVTVSWNSGALTSGVHTFPAVLQSSGLYSLSSVVTVPSSSLGTQTYICNVNHKPSNTKVDKKVEPKSCDKTHTCPPCPEPKSCDTPPPCPRCPAPGGGSSGGGSGGQPREPQVYTLPPSRDELTKNQVSLTCLVKGFYPSDIAVEWESNGQPENNYKTTPPVLDSDGSFFLYSKLTVDKSRWQQGNVFSCSVMHEALHNHYTQKSLSLSPGK
light: B1 light with P49S

Legend:
[1] = tested on: LS-174T human tumor xenografts; assay: Biodistribution of 90Y-CHx-DTPA conjugated antibody in tumor-bearing mice; assay type: in vivo, athymic mice; settings: for Percentage injected dose (% ID) of 90Y radiolabelled antibody per gram, Blood / Percentage injected dose (% ID) of 90Y radiolabelled antibody per gram, Kidney / Percentage injected dose (% ID) of 90Y radiolabelled antibody per gram, Liver / Percentage injected dose (% ID) of 90Y radiolabelled antibody per gram, Spleen / Percentage injected dose (% ID) of 90Y radiolabelled antibody per gram, Tumor: 7 mice/group, mean ± standard deviation
Description: Biodistribution of ^90Y-2-(p-isothiocyanatobenzyl) (p-SCN-Bz)-cyclohexyldiethylenetriaminepentaacetic acid ligand (CHx-DTPA) conjugated HuCC49 V2 PAP (containing the connecting peptide shown in SEQ ID NO: 32) and control parent HuCC49 antibody were evaluated and compared in athymic mice bearing LS-174T human tumor xenografts. Percentage injected dose (% ID) of ^90Y radiolabelled antibody per gram of tumor or normal tissue was determined at 3 and 24 hours and is shown in Table 7.

[2] = Sensitivity to glutathione (GSH) reduction, non-reducing SDS-PAGE; assay type: physicochemical
Description: Briefly, 50 ug of ddCC49 (Gly-Ser), ddCC49 G1/G3/Pro243Ala244Pro245+[Gly/Ser] (SEQ ID NO: 5) or parent CC49 were incubated with 0, 1, 5 or 10 mM GSH for one hour at room temperature. Reaction buffers used include 100 mM PBS, pH 7.2 or 100 mM Sodium Acetate, 100 mM NaCl, pH 4.5. GSH-treated antibodies were heated with SDS and applied to a 4-20% gradient SDS-PAGE, non-reducing gel. Applied samples were allowed to migrate through the gel at a constant 120 Volts for 90 minutes at room temperature. Proteins were Coomassie stained and gels dried.

Molecule | Percentage injected dose (% ID) of 90Y radiolabelled antibody per gram, Blood ([1]; 3 hrs) [% ID per gram] | Percentage injected dose (% ID) of 90Y radiolabelled antibody per gram, Kidney ([1]; 3 hrs) [% ID per gram] | Percentage injected dose (% ID) of 90Y radiolabelled antibody per gram, Liver ([1]; 3 hrs) [% ID per gram] | Percentage injected dose (% ID) of 90Y radiolabelled antibody per gram, Spleen ([1]; 3 hrs) [% ID per gram] | Percentage injected dose (% ID) of 90Y radiolabelled antibody per gram, Tumor ([1]; 3 hrs) [% ID per gram] | uptake in the kidney compared with control HuCC49 antibody ([1]; 24 hour time point, p<0.01) | uptake in the tumor compared with control HuCC49 antibody ([1]; 24 hour time point, p<0.05 unpaired t Test) | Percentage injected dose (% ID) of 90Y radiolabelled antibody per gram, Blood ([1]; 24 hrs) [% ID per gram] | Percentage injected dose (% ID) of 90Y radiolabelled antibody per gram, Kidney ([1]; 24 hrs) [% ID per gram] | Percentage injected dose (% ID) of 90Y radiolabelled antibody per gram, Liver ([1]; 24 hrs) [% ID per gram] | Percentage injected dose (% ID) of 90Y radiolabelled antibody per gram, Spleen ([1]; 24 hrs) [% ID per gram] | Percentage injected dose (% ID) of 90Y radiolabelled antibody per gram, Tumor ([1]; 24 hrs) [% ID per gram] | tumor to organ ratio compared with HuCC49 ([1]; mouse, in vivo) | stability toward glutathione (GSH) reduction ([2]; 0, 1, 5 or 10 mM GSH, one hour, room temperature, compared with domain deleted CC49 with a Gly-Ser hinge linker) | protection from GSH reduction by buffer ([2]; 100 mM Sodium Acetate at pH 4.5 compared to 100 mM PBS at pH 7.2)
B1 | 24.6 ± 3.0 | 10.0 ± 1.4 | 8.4 ± 1.0 | 4.6 ± 2.2 | 16.1 ± 5.0 | lower in the kidney | significantly higher in the tumor | 2.0 ± 0.6 | 6.7 ± 0.4 | 11.2 ± 2.2 | 7.7 ± 1.8 | 21.3 ± 4.8 | higher tumor to organ ratio for all organs except blood | – | –
B2 | – | – | – | – | – | – | – | – | – | – | – | – | – | more stable toward glutathione (GSH) reduction | further protects
